Experimental data taken from paper PMC10668032.
Some of the results follow. At the low end of the ranking the order means little.

Each sequence was assayed against SIX1 homeodomain (reference allele) (UniProt Q15475) (assay: universal protein binding microarray). Conditions: Universal all-10-mer PBM (8x60K, AMADID 030236), 300 nM GST-tagged protein, Alexa Fluor 488 anti-GST; buffer, salt, pH and temperature not stated; high values mean tight binding; most listed sequences are background and not binding sites; double strand, one strand shown.

Row | Sequence | binding signal [E-score]
1 | AAAGCCCA | -0.0959
2 | AGGCCGCC | -0.311
3 | ACAGTTTG | -0.0866
4 | ACCGACAG | -0.055
5 | CCCACGCA | -0.183
6 | GCGAGAGA | -0.21
7 | CTGTACCC | 0.0213
8 | GTGACAAC | -0.0571
9 | AAGCGTAG | -0.214
10 | CGCATTAG | 0.02
11 | GACCACCA | -0.147
12 | ACCTGGTG | 0.178
13 | TTAACGAA | -0.127
14 | GCGTAGAA | -0.107
15 | CCTACAAC | -0.05
16 | GCCCAGCA | -0.162
17 | GCGGAGAC | -0.0396
18 | ACATGTTG | 0.152
19 | ACTGGTCG | -0.104
20 | CAGGTCCG | 0.0188
21 | TATTCAGA | 0.126
22 | CCGCCCAA | -0.0716

Row | Sequence | binding signal [E-score]
23 | CTGAACCA | -0.0395
24 | CCGCGATA | 0.411
25 | GCCAGAGC | -0.218
26 | ATGATAAT | 0.168
27 | CAGAATCA | -0.0154
28 | CAAACATC | -0.211
29 | CTATAGCC | -0.0739
30 | ACACTAAA | -0.0284
31 | ATACCTCG | 0.342
32 | GTTGTATA | 0.176
33 | GAACGTTA | -0.348
34 | GACTGTAC | -0.155
35 | TCACACAA | -0.00967
36 | AGACTTAA | -0.292
37 | ATGGGCCA | -0.28
38 | ATTAGAGC | 0.0969
39 | AAGCCGTC | -0.124
40 | GTCACCCA | -0.165
41 | GGTCCGAC | -0.136
42 | AGAAATGG | -0.203
43 | GAAAAGAA | -0.237
44 | AAGTCGCG | -0.12

Row | Sequence | binding signal [E-score]
45 | ATTCTGGC | -0.176
46 | CGTATTGC | 0.189
47 | AACTCTAT | -0.14
48 | CACACTAG | -0.13
49 | GCTCAAGC | -0.174
50 | GCCGCGAA | -0.132
51 | ATGGCATC | 0.155
52 | AAGCCCAG | -0.2
53 | AAATTTGG | -0.27
54 | CAAAGGTA | 0.0553
55 | AAACAAAT | -0.203
56 | ACAGGACA | -0.181
57 | AGTTAGCC | -0.171
58 | ATGCTCGC | -0.02
59 | GATCGTCA | 0.145
60 | AGGCTATA | 0.132
61 | GCCGAATA | 0.139
62 | TGGTCGAA | -0.209
63 | GATTATCC | 0.329
64 | GCGGGTTA | 0.114
65 | ACAGGGCA | -0.11
66 | GATGACTA | -1.5e-05

Row | Sequence | binding signal [E-score]
67 | CGTGTAGA | 0.17
68 | AATGACGC | 0.0723
69 | ACCACGGT | -0.139
70 | CCCTGGAG | -0.29
71 | GAGTCAGC | -0.17
72 | CCTTGTCG | -0.117
73 | AATCAAGC | -0.0872
74 | GTCGGTAA | -0.144
75 | CCGCTTTA | 0.0759
76 | TGTTGGAA | -0.0784
77 | AAGGCCAG | -0.108
78 | CCGAACAG | -0.188
79 | ATGGTCTC | 0.153
80 | CGCCGCAC | -0.187
81 | TTGCGCAA | -0.253
82 | ACTGCTGC | -0.153
83 | CATGGTTA | -0.0438
84 | TCATACGA | 0.0819
85 | ACGTAGCA | -0.0792
86 | ACTTATCC | 0.166
87 | AGTAAGAC | -0.0377
88 | CCAGGATC | 0.355

Row | Sequence | binding signal [E-score]
89 | AGGTGGCC | -0.144
90 | AGATTACT | 0.0734
91 | ACACATTG | -0.127
92 | GATCGCCA | 0.211
93 | ACCTGCCT | -0.0294
94 | AACTGGCG | -0.15
95 | ATTCGCAA | -0.111
96 | AGGCTCCG | -0.0732
97 | CTCTAAGC | -0.0711
98 | CATTCGCG | 0.0741
99 | GATAACGC | -0.0465
100 | ACTCCGTC | -0.063
101 | CTAATTAA | -0.12
102 | AAAGTAGG | -0.151
103 | CATACCAC | 0.0738
104 | GCCAATCA | -0.137
105 | AAAGGGAC | -0.212
106 | ACGTACGC | -0.25
107 | AATGGAAA | -0.00512
108 | CATGCGCG | -0.0803
109 | AAGGGTGG | -0.121
